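Compound exposure: 48 hours, 5 concentrations, 96-well plates. At the GI50, growth is halved. TGI: total growth inhibition.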
What was measured:
Assay in all cases: DTP human tumour cell line panel, 48 h
CCRF-CEM leukemia = test system: CCRF-CEM leukemia
HOP-92 NSCLC = test system: HOP-92 NSCLC
NCI-H226 lung = test system: NCI-H226 lung
NCI-H23 lung = test system: NCI-H23 lung
SR leukemia = test system: SR leukemia
UACC-257 melanoma = test system: UACC-257 melanoma

## NC(=O)CCc1ccccc1Oc1nccc(-c2c(-c3ccc(F)cc3)ncn2C2CCNCC2)n1
CCRF-CEM leukemia
  GI50: > 25 µM
  TGI: > 25 µM
HOP-92 NSCLC
  GI50: > 25 µM
  TGI: > 25 µM
NCI-H226 lung
  GI50: > 25 µM
  TGI: > 25 µM
NCI-H23 lung
  GI50: > 25 µM
  TGI: > 25 µM
SR leukemia
  GI50: > 25 µM
  TGI: > 25 µM
UACC-257 melanoma
  GI50: > 25 µM
  TGI: > 25 µM
